Results on 24 molecules are retold here after ChEMBL document CHEMBL4888484, “Replenishing the malaria drug discovery pipeline: Screening and hit evaluation of the MMV Hit Generation Library 1 (HGL1) against asexual blood stage Plasmodium falciparum ,using a nano luciferase reporter read-out” (2022).

In all, about 150,000 compounds went through this assay and about 540 (0.36%) showed an effect of 50% or more. This is one part of the list.

This test concerns Plasmodium falciparum. Briefly: Primary screen in NF54 nanoGlo assay, in single point, at 2uM, 72h; a lower Z score goes with more inhibition. It is filed as functional, Erythrocyte. The note with it: timepoint 72 hour.
What is called % Inhibition is the drop in the measured response relative to a control, in per cent. As for `CN1CCN(Cc2ccc3cccc(Cl)c3n2)C[C@]12CCNC(=O)CC2`, the “% Inhibition” value is on record as -16% and the Z score is 3.14.
Consider `CCn1cc(C)c(C(=O)O)c1CC(=O)N1CCc2ccccc2C1`, for which the “% Inhibition” value came to 5% and the Z score is -0.62.
The corresponding values for `Fc1ccc(COc2ccc(Cl)cc2CNCc2ccc3c(c2)OCO3)cc1` are -3% and 0.36.
Turning to `Cc1cc(=O)n2nc(CCC(=O)N[C@H](CO)Cc3ccccc3)nc2[nH]1`, the “% Inhibition” value is -4% and the Z score was 0.5.
For `Oc1c2c(nc3ccccc13)CCCCC2`, the “% Inhibition” value amounted to 25% and the Z score is -3.15.
The corresponding values for `CC12CCN(S(=O)(=O)C3CC3)CC1C2(F)F` (stereo not drawn) are -8% and 0.64.
The corresponding values for `COc1ccc(CNC(=O)c2cnc3c(C)cccn3c2=O)c(C)c1` are 2% and -0.32.
The corresponding values for `Cc1ncsc1CCN1CCN(CCc2cccs2)CC1` are -3% and 0.38.
With `CCn1c(-n2nc(CC(N)=O)nc2CN2CCCC2)nc2ccccc21`, the “% Inhibition” value was -20% and the Z score is 2.13.
With `Cc1cc(NS(=O)(=O)c2onc(C3CC3)c2Cl)c[nH]c1=O`, the “% Inhibition” value is -2% and the Z score turned out to be 0.31.
The matching figures for `COCCN(CC(=O)Nc1cc(N2CCN(C(=O)NC(C)C)CC2)ccc1Cl)C(=O)c1ccccc1Cl`: -25% and 2.66.
The matching figures for `O=S(=O)(c1cc(F)ccc1F)N1CCC[C@H]1c1nncn1Cc1ccncc1`: -6% and 1.21.
Turning to `c1ccc(-c2noc(-c3nc(-c4cccnc4)no3)n2)cc1`, the “% Inhibition” value was -3% and the Z score is listed as 0.35.
The matching figures for `CN1C[C@@H]2C[C@H]1C(=O)N[C@H](Cc1ccccc1)C(=O)NCc1cn(nn1)CCOc1cccc(c1)C(=O)N2`: -9% and 1.54.
The corresponding values for `O=C(NCC1CCOCC1)c1cccc(S(=O)(=O)N[C@H]2CCNC2=O)c1` are -6% and 1.09.
The corresponding values for `Fc1cc(Br)cnc1CN1CCC[C@H]1c1ncn[nH]1` are 19% and -2.4.
Turning to `Cc1nc[nH]c1-c1c(-c2ccccc2)ncn1CC1CCOCC1`, the “% Inhibition” value is recorded as -3% and the Z score is 0.24.
The matching figures for `O=C(c1cc(CO)ccn1)N1CCCC[C@@H]1CCc1cccc(O)c1`: -19% and 1.78.
The matching figures for `COc1cc(OC)cc(C(=O)N2CCN(C3CCCCCC3)CC2)c1`: -4% and 0.73.
As for `CS(=O)(=O)C[C@H]1CN(C(=O)NCC=CC2CC2)CCO1`, the “% Inhibition” value stood at 6% and the Z score is recorded as -0.7.
The matching figures for `Cc1nnc2ncc(-c3ccc(F)c(C(F)(F)F)c3)cn12`: -9% and 1.76.
The matching figures for `COc1ccc(OC)c(C(C)NCC(C#N)CCC#N)c1` (stereo not drawn): -10% and 1.39.
The corresponding values for `CCC(C)N(C(=O)c1csnc1C)C(C)CC` (stereo not drawn) are -9% and 0.89.
As to `O=C1CCCN1c1ccc(CNS(=O)(=O)c2cccnc2)cc1`, the “% Inhibition” value was -13% and the Z score was 1.55.
